Measurements reported in the RNAGym collection of RNA variant scans (doi:10.7554/elife.90254).
The source gives no read counts; variants with many changes may rest on few reads.

B1: LINE1-full (parent)
chain: UACGUAGGUGGUUUUCCCCUGAUAGUGCUAAGGGGGCCUGGAAGUUUGGACUGGGCAGAGCUCAACACAGCGUGGCAAAGUGGCUGUGGCUAGACUGCCUCUCUGGAUUCCUCGUCACUCAGCAGGGCAUCUCUGAGAGAAAUGCC

Variants of: B1
Experiment: self-cleavage, relative activity (ratio to wild type); higher = more cleavage; in vitro, sequencing; the parent is a self-cleaving ribozyme

Variant | self-cleavage
A22G U85A U87A | 0.08
U23C U46C U130C | 1.02
A24G A59U U104A | 0.45
U23A G54U A64C U87C | 0
U23A U45C U102C | 0.57
U23C G122U G144A | 1.4
A22G U130C U132C | 1.91
A24G A57U A64G A67G G97U C118U A138G | 0.19
A22G C113A A121G | 1.38
A24G A77G A136G | 1.84
A22G G89A U130C | 0.04
U23C U52A A67C | 0.08
U23C A42G U85C A142G | 0.73
A22G G49U U112C U115C | 0.38
A24G A65G U134C | 0
A22G A117G A138G | 1.31
A22G C71G U96C A117U | 0.05
U23C G55A C84U U108C U115C U119A | 0.12
A22U A65U A77G | 0.27
U23C A42G A50U A107G C128A | 0.14
A22G U47A A69G A79G U87A | 0.13

Variant | self-cleavage
A22U U45C U100C U134C U143A | 1.15
A24G A57G U104A | 0.54
U23C U87C G97A C101U A121G A142G | 0
U23C G36A A59U | 0.52
A24C G89U G114A | 0.05
A22G U47C U85C | 0
U23C A50G G74A U108C | 0
A22G U45A A141G | 0.62
A22U A59G A142G | 0.26
U23C A59U U143C | 0.59
A22U U29C A79U | 1.37
A22G C101U C128U | 0.85
U23A U46G A138U | 1.6
U23C U102A A129G | 2.57
U23C U47C C116U | 0.28
A22U A94C U112C | 0.15
A22U A24U A67G U87C G144A | 1.84
U23C A78G U109C | 2.83
U23C U52C A57G | 0.56
U23C A57G A136U A140G | 1.53
U23C C38U A42G U47A | 1.11

Variant | self-cleavage
A22G U109A U130C A142G | 1.45
U23C U119C A121G | 1.04
U23C U26A U100A U108C | 2.14
A22G G33A A64G G86U A94G | 0.11
U23C A124G A141U | 0.56
A22U G49A G126A A140U | 0.88
U23C A30G U85C | 0.97
A22U G27A U29C A79G A140G | 1.93
A22G U29A U62C U109A | 0
A22G G40A U109C | 0.83
A22U G54A U119C A124G | 0.18
A24G A50U G82A A138G A140G | 2.02
A22U U26G G27A G41A | 0.85
A22G C28A A138U | 0.77
U23A U46C C76U | 0.57
U23A A78G U91G | 0
U23A U52A A67G | 0.86
U23C G72A C76U A79G | 1.05
U23C U47C A129G | 1.21
U23A A65U A67U U73A | 0.06
A22G U85A C146U | 0.07

Variant | self-cleavage
A24G A30U U73C | 2.45
A22G U73A U132C | 2.08
U23C A30U A129U U132C | 2.11
U23C U47G A121U G127U | 1.65
A22G A117G U119A | 1.59
A22G C76U A129G | 1.88
A22G U39C G88A A94G U104C U108C | 0
U23C G41U A65G A92G | 0.06
A22U A42G U112C | 2.27
A22G G89A A92G | 0.21
A22U U134C A138G | 1.03
A22G U73C A79U | 1.89
A24G A77G A138U | 1.98
A22G U100C C113U | 1.37
A22G C63A U102C A129G U134A | 0.15
A24G A43C C111U A117G U132C | 1.84
A22U A92U U96C U143A | 0.13
A22G A140G A142G | 1.33
A24G A43U A136G | 0.9
U23C G27A U39G | 1.5
U23G A59U U73G | 0.62
